# Experimental data taken from PubChem BioAssay AID2546 (National Center for Advancing Translational Sciences (NCATS), 2010).
# The whole screen tested about 310,000 compounds, of which about 11,000 (3.5%) were called active. The inconclusive results got no clear call from the source; some entries with a clear call stand among them for comparison. Calls come from the whole dose curve; as a rule, active = well fitted inhibition curve with a large enough effect; inconclusive = small, poorly fitted or top-dose-only effect, or effect the other way; inactive = flat fitted curve, though single readings scatter. Potencies of inconclusive entries are left out as doubtful fits.
# Assay: VP16 counterscreen qHTS for inhibitors of ROR gamma transcriptional activity;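 note: Gal4-VP16 expression switched on by copper sulfate through the metallothionein promoter; nearly all actives have a fitted effect of over 50% in size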
# Details: Drosophila S2 Gal4-VP16 UAS-luciferase, luminescence, 20 h; series mostly up to 53.6 µM
# Potency is the fitted concentration of half-maximal effect; tags give direction and shape of the fitted curve.
row,SMILES,Potency
1,CCCOC(=O)c1ccc(OCC(O)Cn2c(C)nc3ccccc32)cc1 (stereo not drawn),active: 3.16 µM
2,COc1cc2c(cc1NC(C)=O)CCCC2,"inconclusive [inhibitor, single point]"
3,O=C1C(Cl)=C(Nc2ccc(F)cc2)C(=O)N1CCc1ccccc1,"inconclusive [activator, single point]"
4,Cc1ccccc1N(CC(=O)N1CCOCC1)S(C)(=O)=O,"inconclusive [activator, single point]"
5,CCNC(=S)Nc1ccc(C)c(S(=O)(=O)Nc2ccccc2OC)c1,inactive
6,COc1ccc(-c2nc(Cn3c(SCc4ccc(C)cc4)nc4ccncc43)c(C)o2)cc1OC,"inconclusive [inhibitor, single point]"
7,COc1cc(C)c(S(=O)(=O)NCc2cccs2)cc1C,"inconclusive [inhibitor, single point]"
8,C/C(=C\c1ccccc1)C(=O)Nc1nccs1,"inconclusive [inhibitor, single point]"
9,COc1ccc(N2C(N)=C(C#N)C(c3cccnc3)C3=C2CC(C)(C)CC3=O)cc1 (stereo not drawn),"inconclusive [activator, partial curve, poor fit]"
10,COc1ccc(CNC(=O)COC(=O)CCc2c[nH]c3ccccc23)cc1,inactive
11,CNc1nc(-c2ccccc2)nnc1C(F)(F)F,"inconclusive [activator, single point]"
12,O=C(NCCc1ccccc1)c1ccc([N+](=O)[O-])cc1,"inconclusive [inhibitor, partial curve, poor fit]"
13,CC1CC(C)CN(S(=O)(=O)c2ccc(NC(=S)NC(=O)c3ccccc3)cc2)C1 (stereo not drawn),"inconclusive [inhibitor, partial curve, poor fit]"
14,CCc1ccc(NC(=O)Cn2nc(C)c([N+](=O)[O-])c2C)cc1,inactive
15,CCOC(=O)C1CCCN(C2CC(=O)N(c3cccc(C(F)(F)F)c3)C2=O)C1 (stereo not drawn),"inconclusive [inhibitor, single point]"
16,O=C(CCl)Nc1cc(-c2ccccc2)nn1-c1ccccc1,"inconclusive [inhibitor, single point]"
17,CCc1nnc(N/N=C/c2cccs2)n1N,active: 12.6 µM
18,O=C1NC(=O)c2cc(NC(=O)c3cccc4ccccc34)ccc21,"inconclusive [inhibitor, single point]"
19,Cc1cccc(-n2c(C)cc(/C=N/n3cnnc3)c2C)c1,active: 20 µM
20,CCc1ccc2oc(-c3cc(N=Cc4cccc(OC)c4O)ccc3O)nc2c1,"inconclusive [inhibitor, single point]"
21,Cc1cnc(NC(=O)c2cc3c(C)nn(-c4ccccc4)c3s2)s1,active: 1.12 µM
22,COc1ccc(C2=NS(=O)(=O)N(C)C(C(=O)NC3CCCCC3)=C2)cc1OC,inactive
23,CCCCc1ccc(S(=O)(=O)NC2CCS(=O)(=O)C2)cc1 (stereo not drawn),"inconclusive [inhibitor, partial curve]"
24,Cc1ccccc1Nc1ncnc2c1cnn2-c1ccccc1,active: 15.8 µM
25,O=C(c1ccc(S(=O)(=O)Nc2ccc(F)cc2)cc1)N1CCN(c2ccccn2)CC1,"inconclusive [inhibitor, single point]"

row,SMILES,Potency
1,CCOC(=O)c1cccc(N2C(=O)c3ccccc3S2(=O)=O)c1,inactive
2,CS(=O)c1nc(-c2ccc(Br)cc2)cc(-c2ccccc2)c1C#N (stereo not drawn),active: 14.1 µM
3,Cc1sc2ncnc(NCC3COc4ccccc4O3)c2c1C (stereo not drawn),active: 1 µM
4,COc1ccc(C(=O)Nc2ccccc2C(=O)N2CCCCC2C)cc1 (stereo not drawn),inactive
5,CCN(CC)S(=O)(=O)c1ccc(C(=O)N(c2ccc(C)cc2)C2C=CS(=O)(=O)C2)cc1 (stereo not drawn),"inconclusive [inhibitor, partial curve, poor fit]"
6,COc1ccc(CC(=O)N2N=C(C)CC2(O)c2cccnc2)cc1OC (stereo not drawn),"inconclusive [inhibitor, partial curve]"
7,O=C(O)CC12CC3CC(C1)CC(n1ncc(NCc4ccc(F)cc4)c(Cl)c1=O)(C3)C2,"inconclusive [inhibitor, partial curve, poor fit]"
8,COc1cc(OC)cc(C(=O)NC(=S)NCCc2ccccc2)c1,active: 0.631 µM
9,Cc1c(C(=O)N2CCc3ccccc3C2)oc2ccc(S(=O)(=O)N3CC(C)CC(C)C3)cc12 (stereo not drawn),"inconclusive [inhibitor, partial curve]"
10,N#CCCn1c(=O)c(-c2cccs2)nc2cnc(N3CCNCC3)nc21,"inconclusive [inhibitor, single point]"
11,CC(=O)c1cccc(OCc2cc(C(=O)N(C)Cc3ccc(C)o3)no2)c1,"inconclusive [inhibitor, single point]"
12,COC(=O)c1ccccc1NC(=O)CN(C)S(=O)(=O)c1ccc(OC)c(C)c1,"inconclusive [inhibitor, single point]"
13,N/C(Cc1cccs1)=N\OC(=O)COc1ccc(Cl)cc1Cl,"inconclusive [inhibitor, full curve, poor fit]"
14,Cn1cc(SCC(=O)N2CCOCC2)c2ccccc21,inactive
15,Cc1nc(C)c(-c2ccc(SCc3ccccc3C)nn2)s1,inactive
16,Cc1nc2ccc(NC(=O)c3ccc([N+](=O)[O-])cc3)cc2[nH]1,"inconclusive [activator, partial curve]"
17,CCc1ccc(NC(=O)CSc2nc3nc(C)cc(C)n3n2)cc1,active: 1.12 µM
18,Cc1ccc(-n2[nH]c(C)c(/C=N/n3c(C)nc4ccccc4c3=O)c2=O)cc1,"inconclusive [inhibitor, single point]"
19,O=C(N/N=C/c1ccc(F)cc1)c1cccc(NC(=O)c2ccccc2Cl)c1,"inconclusive [inhibitor, single point]"
20,CC(O)CNCCNCc1c(OCc2ccccc2)ccc2ccccc12 (stereo not drawn),active: 22.4 µM
21,Cc1ccc(OCC(=O)N/N=C2\CCOc3c(C)cccc32)cc1,"inconclusive [inhibitor, single point]"
22,Clc1ccc(-c2csc(N3CCc4ccccc4C3)n2)cc1,inactive
23,Cc1cc(NC(=O)c2cncc(Br)c2)ccc1NC(=O)c1cc2ccccc2o1,active: 11.2 µM
24,CCN1CCN(c2c(/C=C3\SC(=S)N(Cc4ccco4)C3=O)c(C)c(C#N)c(=O)n2C)CC1,"inconclusive [inhibitor, single point]"
25,CCN(Cc1ccncc1)S(=O)(=O)c1ccc(C(C)=O)cc1,active: 7.94 µM

row,SMILES,Potency
1,COc1cccc(OC)c1C(=O)NC(=S)NCc1ccco1,"inconclusive [inhibitor, single point]"
2,CC(C)Cn1c(=S)[nH]c2ccccc2c1=O,active: 4.47 µM
3,O=C1C(N2CCOCC2)=C(n2nnc3ccccc32)C(=O)c2ccccc21,active: 5.62 µM
4,COc1ccc(-c2cc(C)no2)cc1S(=O)(=O)N1CCN(c2cccc(C)c2)C(C)C1 (stereo not drawn),inactive
5,c1ccc2oc(SCc3cn4ccccc4n3)nc2c1,active: 15.8 µM
6,Nc1ncc(Br)cc1S(=O)(=O)NCCC(=O)NCc1ccc(F)cc1,inactive
7,COc1ccc(CNC(=O)COC(=O)CC2CCCC2)cc1,inactive
8,OC(CSc1ccccc1Cl)CN1CCN(c2ccccc2F)CC1 (stereo not drawn),"inconclusive [inhibitor, single point]"
9,COc1ccccc1C(=O)NCCOc1ccc(C(C)(C)C)cc1,"inconclusive [inhibitor, single point]"
10,Cc1cccc(C2c3[nH]c4ccccc4c3CCN2C(=O)c2nn(C)c(=O)c3ccccc23)n1 (stereo not drawn),inactive
11,Cc1ccc(OCC(=O)N/N=C/c2cccc3cccnc23)cc1,"inconclusive [inhibitor, single point]"
12,Cc1ccc(C(=O)N2CCN(c3ccc([N+](=O)[O-])cc3)CC2)o1,inactive
13,Cc1ccc(CNc2ccc3c(c2)nc(C)n3C)cc1,"inconclusive [inhibitor, single point]"
14,CC1Sc2n(c3ccccc3[n+]2C)N=C1c1ccccc1 (stereo not drawn),"inconclusive [inhibitor, single point]"
15,O=C(/C=C\c1ccco1)NC(=S)Nc1ccccc1O,"inconclusive [inhibitor, single point]"
16,O=C(NCc1ccc(N2CCCC2=O)cc1)c1cc(COc2c(F)cccc2F)on1,"inconclusive [inhibitor, single point]"
17,CCOC(=O)c1c(C)oc2c1c(C(c1cccnc1)N1CCOCC1)c(O)c1ccccc12 (stereo not drawn),"inconclusive [inhibitor, single point]"
18,CCOc1ccc(NC(=S)N2CCN(C/C=C/c3ccccc3)CC2)cc1,"inconclusive [inhibitor, single point]"
19,CN(C)/C=C/C(=O)c1cnc(-c2cccc(Cl)c2)s1,"inconclusive [activator, single point]"
20,Cc1cc(=O)[nH]c(S/C=C/c2ccccc2)n1,"inconclusive [inhibitor, single point]"
21,CC(=O)c1ccccc1OCc1ccc(S(=O)(=O)Cc2ccccc2)cc1,"inconclusive [inhibitor, single point]"
22,CC(C)(C)N=C1NN=C(c2cc3ccccc3o2)CS1,"inconclusive [inhibitor, single point]"
23,Cc1ccc(NC(=O)CSc2nc3ccccc3c(=O)n2CCCC(=O)N2CCCC2)cc1,inactive
